# Source: PubChem BioAssay AID1240 (Sanford-Burnham Center for Chemical Genomics, 2008)
# The whole screen tested about 50,000 compounds, of which about 800 (1.6%) showed an effect of 50% or more. The list shows a part of the results.
# Target: Bcl-2-like protein 10 (Homo sapiens) (UniProt Q9HD36)
# Test: TR3 peptide-Bcl-B binding displacers, biochemical primary FP assay, phenotype converters (AID 1240);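 note: 0% = Bcl-B with tracer peptide and DMSO and 100% = tracer peptide lacking Bcl-B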
# Settings: GST-Bcl-B / FITC-TR3 peptide fluorescence polarization; stronger effect = higher value; compound at 3.75 mg/L
# Sequence of UniProt Q9HD36 (Q9HD36 whole entry, looked up): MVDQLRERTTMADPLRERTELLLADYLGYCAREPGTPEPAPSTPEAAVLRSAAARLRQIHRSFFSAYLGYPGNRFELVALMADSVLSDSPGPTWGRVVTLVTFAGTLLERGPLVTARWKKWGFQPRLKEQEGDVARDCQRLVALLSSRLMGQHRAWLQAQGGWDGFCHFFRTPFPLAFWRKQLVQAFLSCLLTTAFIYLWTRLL
row,SMILES,displacement
1,CC1(C)Nc2ccc(OC(=O)c3ccccc3Br)cc2-c2c1ssc2=S,-5.6%
2,O=C1OC(C23CC4CC(CC(C4)C2)C3)=N/C1=C\c1ccccc1,15.4%
3,CCOC(=O)C1CCN(C(=O)Cc2ccc(OC)c(OC)c2)CC1,1.3%
4,CC(C)c1ccc(NS(=O)(=O)c2cc(Cl)ccc2Cl)cc1,-7.8%
5,Cc1cccc(-n2c(O)c(C=Nc3ccccc3C)c(=O)[nH]c2=O)c1,3.4%
6,Cc1cc(C(=O)N/N=C(\CCC(=O)O)c2ccccc2)n[nH]1,-6.6%
7,Cc1ccc(NC(CC(=O)O)C(=O)O)cc1 (stereo not drawn),28.9%
8,Cc1ccc(NC(=O)/C(C#N)=C2\NC(C)(C)Cc3ccccc32)cc1,0.7%
9,COCC(=O)Nc1nc2ccccc2s1,13.2%
10,CN1CCc2c1nc1ccccc1c2NC(=O)CN1CCCC1,-8.7%
11,CCCOc1ccc(N2C(=O)CC(N3CCC(C(=O)OCC)CC3)C2=O)cc1 (stereo not drawn),3.8%
12,COC(=O)CN(c1cccc(Cl)c1Cl)S(=O)(=O)c1ccccc1,-2.9%
13,COC(C)(C)c1cc(C(C)(C)C)nc(N)n1,-1.6%
14,Cc1cc(C(=O)Nc2ccc(I)cc2C(=O)O)ccc1[N+](=O)[O-],8%
15,O=C(CCNc1cccc(C(F)(F)F)c1)c1cccs1,-12.3%
16,Cc1ccc(C2OC3(C(=O)c4ccccc4C3=O)C(c3ccc(Br)cc3)C23C(=O)c2ccccc2C3=O)cc1 (stereo not drawn),-7.9%
17,COc1ccccc1/C=C/C=NN1CCN(Cc2ccccc2)CC1,-3.3%
18,Cc1cc(OCC(O)CN2CCN(c3ccccc3)CC2)cc(C)c1Cl (stereo not drawn),-3%
19,Nc1ccccc1C(=O)N/N=C\c1ccc(Br)o1,-6%
20,CC(Oc1ccccc1)C(=O)Nc1ccc(-c2nc3ccccc3o2)cc1 (stereo not drawn),-5.1%
21,C=CCN1C(=O)/C(=C\c2cccc3ccccc23)C(=O)NC1=S,9.4%
22,Cc1ccc(S(=O)(=O)NNC(=O)c2ccoc2C)cc1,10%

row,SMILES,displacement
1,C/C(=N\NC(=O)c1ccc(O)cc1O)c1ccccn1,3.2%
2,Cc1ccccc1C(=O)Nc1c(C(=O)N2CCCC2)cnn1-c1ccccc1,-5.4%
3,COc1ccc(NC(=O)CC(c2ccccc2)c2ccccc2)c(OC)c1,-1.8%
4,NC(=S)N/N=C(\c1ccccc1)C12CC3CC(CC(C3)C1)C2,-2.7%
5,NC(=O)c1c(NC(=O)c2ccc(S(=O)(=O)N3CCCCC3)cc2)sc2c1CCCC2,-2.2%
6,Cn1cc(-c2nc3ccccc3[nH]2)c2ccccc21,13.2%
7,Cc1cc(-c2ccc(C=C3C(=O)NC(=S)NC3=O)o2)c([N+](=O)[O-])cc1C,26.1%
8,Cc1ccc(-n2c(-c3ccccc3)n[nH]c2=S)cc1,-10.5%
9,CCOc1ccc(C(=O)Nc2cc3nn(-c4ccc(C)cc4)nc3cc2C)cc1[N+](=O)[O-],6.8%
10,CCCCc1nnc(NC(=O)CN2C(=O)/C(=C/c3ccccc3Cl)SC2=S)s1,-9.1%
11,Cc1ccc(NC(=O)C2CC(=O)N(c3cccc([N+](=O)[O-])c3)C2)cc1C (stereo not drawn),-9.8%
12,Cc1cccc(/C(N)=N/OC(=O)c2ccc(C)c([N+](=O)[O-])c2)c1,2.2%
13,COCCCNC(=O)c1cc(-c2ccccc2)nc2ccccc12,-3.9%
14,O=C(/C=C/c1cccc(Cl)c1)c1ccc2c(c1)OCCO2,-7.4%
15,O=C1C(=Cc2ccc(OCc3ccc(F)cc3)c(Br)c2)C(=O)c2ccccc21,19.1%
16,COc1ccc(Cl)cc1C(=O)NCc1cccnc1,-8.5%
17,O=C(NCC(O)c1ccccc1)C(=O)NC1CC1 (stereo not drawn),6.9%
18,Cc1cc(Nc2ccccc2)c2c([N+](=O)[O-])cc(C)c(C)c2n1,-1.6%
19,O=C(O)c1cccnc1SC1CC(=O)N(c2cccc(C(F)(F)F)c2)C1=O (stereo not drawn),-3.7%
20,CC1=NN(c2ccc(Cl)c(C(=O)O)c2)C(=O)/C1=C\c1cccc([N+](=O)[O-])c1,-2.6%
21,CCOCCOC(=O)c1ccc(NC(=O)c2ccncc2)cc1,7.1%
22,CC1CCc2sc3nc(Cc4ccccc4)n(N)c(=O)c3c2C1 (stereo not drawn),-1.3%

row,SMILES,displacement
1,O=C(Nc1nc(-c2ccccc2)cs1)c1ccc(S(=O)(=O)N2CCOCC2)cc1,0%
2,O=C(c1nn2c(C(F)(F)F)cc(-c3ccco3)nc2c1Cl)N1CCCCC1,2.3%
3,COc1ccccc1C(=O)NCCCC(=O)O,7.8%
4,O=C(CCc1ccccc1)NNC(=O)c1ccc(F)cc1,-12.1%
5,COc1ccc(NC(=O)CN(c2ccc(Cl)cc2)S(C)(=O)=O)c(OC)c1,10.7%
6,COc1ccc(NC(=O)c2nn3c(C(F)(F)F)cc(-c4cccs4)nc3c2Br)c(OC)c1,37.8%
7,COc1ccc(OC)c(NC(=O)COc2ccc(Br)cc2C)c1,4.7%
8,COc1ccc(/C=C/C(=O)c2c3c(c(C)[nH]c2=O)CCCC3)cc1,7.3%
9,COc1ccc(/C=C2\SC(=Nc3ccc(F)cc3)NC2=O)cc1OC,9.6%
10,O=C1CC(CC(=O)N/N=C/c2ccccc2[N+](=O)[O-])=NN1,-8.8%
11,CCC(C)(C#CCN1CCCC1)OC(C)=O (stereo not drawn),7.1%
12,Cc1ccc(C(=O)N2CCN(c3ccc(F)cc3)CC2)cc1[N+](=O)[O-],-16.8%
13,COC(=O)C1=C(C)NC2=C(C(=O)CC(C)(C)C2)C1c1ccc(OCc2ccccc2Cl)c(OC)c1 (stereo not drawn),-21.7%
14,O=C(CN1C(=O)c2cccc([N+](=O)[O-])c2C1=O)N1CCc2ccccc2C1,0.3%
15,CC1(C)CC(=O)C2=C(C1)Nc1ccccc1N(C(=O)Cc1ccccc1)C2c1ccc(Cl)cc1 (stereo not drawn),6.7%
16,COc1ccc(N(CC(=O)Nc2cc(C)ccc2C)S(C)(=O)=O)c(OC)c1,17.3%
17,COC(=O)c1ccc(NC(=S)NC(=O)CCN2C(=O)c3ccccc3C2=O)cc1,5.7%
18,Cc1ccc(NC(=O)C2COc3ccccc3O2)cc1C (stereo not drawn),-2.7%
19,CCc1ccc(C(=O)/C=C/c2ccc([N+](=O)[O-])o2)cc1,-14.7%
20,O=C(COc1ccccc1)Nc1ccc(Cl)c(-c2nc3ncccc3o2)c1,3.7%
21,Cc1c(C)c2ccc(OC(C)C(=O)c3ccccc3)cc2oc1=O (stereo not drawn),10.5%
22,COc1ccc(N(CC(=O)Nc2cccc(C(F)(F)F)c2)S(=O)(=O)c2ccccc2)cc1,8.8%

row,SMILES,displacement
1,CSC1=[N+](c2ccccc2)C(O)C(C)CN1 (stereo not drawn),-43.4%
2,O=[N+]([O-])c1cc(C(F)(F)F)cc([N+](=O)[O-])c1Nc1cccc(Cl)c1Cl,7.4%
3,O=C1Nc2ccccc2/C1=N\N=C\c1c(F)cccc1Cl,5.2%
4,CN(/C(=N\S(=O)(=O)c1ccc(Cl)cc1)c1ccccc1)c1ccc(O)cc1,1%
5,COc1ccc(NC(=O)C2CCCN(Cc3ccccc3)C2)cc1OCC(C)C (stereo not drawn),-2.4%
6,O=C(O)c1cc(C(=O)O)cc(N2C(=O)c3ccc(Oc4cccc([N+](=O)[O-])c4)cc3C2=O)c1,3.2%
7,CC(=O)Nc1ccc(OC/C=C(\C)Cl)cc1,10.9%
8,COc1ccccc1-c1c(C(F)(F)F)oc2cc(OCC(=O)O)ccc2c1=O,2.8%
9,COc1cccc(NC(=O)c2ccc(F)cc2)c1,-2.7%
10,O=C(Nc1ccc(F)c(Cl)c1)c1cc([N+](=O)[O-])ccc1Cl,-10.3%
11,C=CCn1c(C(C)O)nc2ccccc21 (stereo not drawn),-6.8%
12,O=C(NCc1ccco1)/C(=C/c1cccnc1)NC(=O)c1cccc(Br)c1,18%
13,COc1cc(/C=N/NC(=O)c2ccc([N+](=O)[O-])cc2)ccc1OC(=O)c1sc2ccccc2c1Cl,1.8%
14,CC1CCN(CCOCCOc2cc(Cl)ccc2Cl)CC1,6.3%
15,CC1=C(C(=O)Nc2ccccc2C)C(c2ccccc2O)NC(=O)N1 (stereo not drawn),5.4%
16,CCOc1ccc(NC(=O)Cc2ccc(Br)cc2)cc1,3.8%
17,CCCOc1ccc(N2C(=O)C3C4C=CC(C4=C(C)C)C3C2=O)cc1 (stereo not drawn),9.9%
18,Cc1ccc(S(=O)(=O)Oc2c(C=C3C(=O)CC(C)(C)CC3=O)[nH]c3ccccc23)cc1,14.6%
19,CCOc1ccc(NC(=O)c2cccc(Oc3ccccc3)c2)c([N+](=O)[O-])c1,7%
20,CC(/C=C/c1ccco1)=N/NC(=O)c1ccc([N+](=O)[O-])cc1,8.4%
21,O=[N+]([O-])c1ccc(/C=N/NS(=O)(=O)c2ccc(Cl)cc2)s1,2.3%
22,C=C1c2ccc(C)cc2NC(=O)N1CC,10.5%

row,SMILES,displacement
1,CCOc1ccc(C(=O)Nc2cc(-c3nc4ccc(C)cc4o3)ccc2Cl)cc1,1.1%
2,CN1C(=O)/C(=C\c2ccc([N+](=O)[O-])cc2)SC1=S,-5.5%
3,O=C1C=C/C(=N\S(=O)(=O)c2ccc(F)cc2)c2ccccc21,1.7%
4,CCCCCOC(=O)CCN1C(=O)/C(=C/c2ccccc2)SC1=S,5.2%
5,COc1ccccc1NC(=O)C1CC1(c1cccc(C)c1)c1cccc(C)c1 (stereo not drawn),-10.5%
6,COc1ccc(-c2cc(C(=O)Nc3cccc(Cl)c3)c3ccccc3n2)cc1OC,4.5%
7,COCCN1C(=O)C(=O)/C(=C(/O)c2ccccc2)C1c1ccc(OC)cc1OC (stereo not drawn),8.4%
8,Cc1cc(Cl)ccc1NC(=O)/C=C/c1ccccc1,-9.4%
9,Cc1ccc(N2CC(C(=O)Nc3ccc(C)c(C)c3)CC2=O)cc1 (stereo not drawn),10.7%
10,Cc1ccc(NC(=O)c2c(NC(=O)c3ccccc3Cl)sc3c2CCCCC3)c(C)c1,6.2%
11,CCSc1nnc(NC(=O)c2cccc(Br)c2)s1,-4.4%
12,Cc1cc(NS(=O)(=O)c2ccc(NC(=O)c3cc(Cl)ccc3[N+](=O)[O-])cc2)no1,-0.5%
13,Cc1ccc(C2Nc3ccccc3C(=O)N2c2ccc(C)cc2)cc1 (stereo not drawn),2%
14,CSCCOC(=O)COc1ccc(/C=N/NC(=O)c2ccc(CN3CCOCC3)cc2)cc1,-0.8%
15,O=C1/C(=C\c2ccccc2F)SC(=S)N1CN1CCOCC1,12.9%
16,O=C1NC(=Nc2ccc(O)cc2)S/C1=C\c1ccc([N+](=O)[O-])cc1,-18.9%
17,CCc1cc(=O)oc2cc(OCc3ccc(F)cc3)ccc12,-1.3%
18,COC(=O)c1ccc(NC(=O)c2c(Cl)cccc2Cl)cc1,15.1%
19,Cc1ccc(NC(=O)CC2Sc3ccccc3NC2=O)cc1 (stereo not drawn),10%
20,COc1ccc(S(=O)(=O)NCCC(C)C)cc1,7.3%
